Experimental data reported in PubChem BioAssay AID504832 (National Center for Advancing Translational Sciences (NCATS), 2011).
Several values for one entry are separate records, joined by “and”; a condition that tells them apart may be missing. Equal entries are not always repeated. Out of some 310,000 compounds screened, about 18,000 (5.8%) were called active. The shares of active, inactive and inconclusive entries below differ from those in the screen. Calls follow the shape of the dose curve; as a rule, active = well fitted inhibition curve with a large enough effect; inconclusive = small, poorly fitted or top-dose-only effect, or another doubt; inactive = no such curve, though single readings can be large or run the other way. Potencies of inconclusive entries are doubtful fits and often do not repeat.

assay: Primary qHTS for delayed death inhibitors of the malarial parasite plastid, 48 hour incubation; conditions: P. falciparum luciferase growth in erythrocytes; series mostly up to 28.7 µM
Outline: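 Luciferase-expressing P. falciparum in infected erythrocytes (2% hematocrit, 0.1% parasitemia final) in RPMI 1640/0.5% Albumax were exposed to compound for 48 hours at 37 C, 5% CO2; growth read as luminescence.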
Potency is read from the fitted curve at half-maximal effect; tags tell the direction and shape of the fitted curve.

| SMILES | Potency |
| --- | --- |
| CSc1ccc(S(=O)(=O)N2CCC(C(=O)NCc3ccco3)CC2)cc1 | active: 1.65 µM |
| COc1ccc2c(c1)CC/C(=C\c1ccc(C)o1)C2=O | inactive |
| O=C(NCc1nc2ccccc2[nH]1)C1=C[C@@H](c2ccc(Br)cc2)C[C@@H](OCc2ccc(CO)cc2)O1 | inconclusive: 1.04 µM [inhibitor, partial curve, poor fit] |
| CCN(CC)c1ccc(N=Cc2ccc(N(CC)CC)cc2O)cc1 | active: 1.17 µM |
| Cc1nc(SCC(=O)N(C)Cc2ccco2)c2c(C)c(C)sc2n1 | inconclusive: 14.7 µM [inhibitor, single point] |
| CC(=O)c1cccc(NC(=O)CC2S/C(=N/N=C/c3cccs3)NC2=O)c1 (centres undefined) | inconclusive: 11.7 µM [inhibitor, single point] |
| O=C(CCn1c(=O)oc2ccccc21)Nc1cccc(Cl)c1 | inconclusive: 11.7 µM [inhibitor, partial curve, poor fit] |
| COc1ccc(NC(=S)N(Cc2cccnc2)Cc2cc3cc(OC)c(OC)cc3[nH]c2=O)cc1 | inconclusive: 2.08 µM [inhibitor, full curve] |
| CN(C(=O)c1cccnc1)c1nnc(-c2ccccn2)s1 | inactive |
| CCNCC(=O)N1c2ccccc2CCc2ccc(NC(=O)OCC)cc21 | active: 10.4 µM |
| COc1ccc(-n2nc3c(N4CCC(C(=O)NCc5ccccc5C)CC4)nnc(C)c3c2C)cc1 | inconclusive: 18.5 µM [inhibitor, single point] and inconclusive: 8.28 µM [inhibitor, partial curve] |
| CCC(=O)N1CCc2cc(S(=O)(=O)NCCC(=O)NC3CCCCCC3)ccc21 | inconclusive: 7.38 µM [inhibitor, partial curve, poor fit] |
| O=C(CN1C(=O)CSC1=O)NCc1ccccc1 | inactive |
| Cn1c(=O)c([N+](=O)[O-])c(Oc2ccccc2)c2ccccc21 | inconclusive: 8.28 µM [inhibitor, partial curve, poor fit] |
| c1coc(CNc2c3c(nc4ccccc24)CCC3)c1 | inconclusive: 11.7 µM [inhibitor, single point] |
| O=C(CCCN1C(=O)/C(=C/c2cccs2)SC1=S)Nc1cccc(C(=O)O)c1 | inconclusive: 13.1 µM [inhibitor, partial curve, poor fit] |
| Cc1ccccc1C(=O)Nc1ccnn1C1CCN(Cc2cnn(C(C)C)c2)CC1 | inconclusive: 7.38 µM [inhibitor, partial curve, poor fit] |
| O=C(CC12CC3CC(CC(C3)C1)C2)N/N=C/c1ccc([N+](=O)[O-])o1 | active: 5.22 µM |
| Cc1cc(S(=O)(=O)NC2CCCCC2)ccc1-n1cnnn1 | inactive |
| O=C(NCCCN1CCCC1)c1ccc2c(c1)N(Cc1cccc(Cl)c1)C(=O)c1ccccc1S2=O (centres undefined) | active: 3.29 µM |
| CCc1cccc2c(C(=O)CSc3nncn3-c3ccccc3OC)c[nH]c12 | inconclusive: 16.5 µM [inhibitor, single point] |
| Nc1nc(N)c(N=O)c(OCC2CCCCC2)n1 | inconclusive: 20.8 µM [inhibitor, partial curve, poor fit] |
| O=C(O)c1ccc(S(=O)(=O)NC2CC2)cc1 | inactive |

| SMILES | Potency |
| --- | --- |
| COc1ccc(NC(=O)c2ccc(-c3ccc([N+](=O)[O-])cc3)o2)cc1OC | inactive |
| COc1ccccc1N(C)S(=O)(=O)c1ccc(Cl)c(C(=O)NCc2cccnc2)c1 | inconclusive: 18.5 µM [inhibitor, single point] |
| CCNC(=S)N(Cc1cc2cccc(C)c2[nH]c1=O)C1CCCC1 | inconclusive: 18.5 µM [inhibitor, single point] |
| Cc1cccc2cc(CN(CC3CCCO3)C(=O)c3ccco3)c(=O)[nH]c12 (centres undefined) | inactive |
| CSc1ccc(/C=C/C(=O)OCC(=O)NC2CCS(=O)(=O)C2)cc1 (centres undefined) | inactive |
| CC(=O)N(C)c1ccc(NC(=O)C(Sc2ccccc2)c2ccccc2)cc1 (centres undefined) | inconclusive: 4.65 µM [inhibitor, partial curve, poor fit] |
| CC(C)(C)NCCOCCOc1ccccc1-c1ccccc1 | inconclusive: 10.4 µM [inhibitor, single point] |
| O=C(CN1C(=O)NC2(CCc3ccccc32)C1=O)NCc1ccccc1Cl (centres undefined) | inconclusive: 10.4 µM [inhibitor, single point] |
| Cc1ccc([C@@H]2[C@@H]3C(=O)N(C)C(=O)[C@@H]3[C@]3(Cc4ccccc4)C(=O)N(Cc4ccccn4)CC(=O)N23)o1 | inactive |
| O=C(NCc1ccccc1)NCC12CC3CC(CC(C3)C1)C2 | inconclusive: 10.4 µM [inhibitor, single point] |
| Cc1c(Cl)cccc1NC(=S)N=Nc1c(O)n(CN2CCOCC2)c2ccccc12 | active: 3.7 µM |
| Cc1cccc(-c2cc(C(=O)Nc3ccc4c(c3)OCCO4)c3ccccc3n2)c1 | inconclusive: 9.28 µM [inhibitor, single point] |
| O=S(=O)(c1ccccc1)[C@@]1(c2ccc(Br)cc2)C[C@@H]2ON=C(c3cccc(Br)c3)[C@@H]2C1 | active: 9.28 µM |
| Cc1ccc(S(=O)(=O)N(C)C)cc1NC(=S)NCc1ccco1 | inactive |
| COc1ccc(S(=O)(=O)Nc2ccc(S(=O)(=O)N(C)C)cc2)cc1[N+](=O)[O-] | inconclusive: 0.415 µM [inhibitor, partial curve, poor fit] |
| Cn1c(=NC(=O)CCl)sc2ccccc21 | inconclusive: 6.57 µM [inhibitor, partial curve] |
| CCOc1ccccc1C1NC(=O)NC(C)=C1C(=O)OCc1ccco1 (centres undefined) | inconclusive: 18.5 µM [inhibitor, single point] |
| Cc1cccn2cc(-c3ccc(S(=O)(=O)N4CCOCC4)cc3)nc12 | inactive |
| CC(C)NC(=S)NC(=O)/C=C/c1cccc2ccccc12 | inactive |
| Cc1nc(C)c(C(=O)N/N=C/c2cc(Br)ccc2O)s1 | active: 2.33 µM |
| COc1ccccc1NC(=O)c1oc2ccccc2c1NC(=O)c1ccco1 | inconclusive: 2.33 µM [inhibitor, full curve] |
| CC(=O)Nc1ccc(NC(=O)C2(C)CC2(Cl)Cl)cc1 (centres undefined) | inactive |
| COc1cc(/C=C(\C#N)C(=O)Nc2cccnc2)ccc1OC(C)C | inactive |

| SMILES | Potency |
| --- | --- |
| Cc1cc2cc(CN(Cc3ccc4c(c3)OCO4)Cc3nnnn3C3CCCC3)c(=O)[nH]c2cc1C | inconclusive: 1.85 µM [inhibitor, full curve] |
| Cc1c(C)n(Cc2ccc(Cl)cc2)c2ccc(C(=O)NCCCN3CCOCC3)cc12 | inconclusive: 16.5 µM [inhibitor, single point] |
| O=C(CN1CCOCC1)NNc1c2ccccc2nc2ccccc12 | inconclusive: 18.5 µM [inhibitor, single point] |
| CCc1c(C)sc(NC(=O)C2CC2)c1C(=O)OC(C)C | inconclusive: 11.7 µM [inhibitor, partial curve, poor fit] |
| Cc1ccc(NC(=O)c2ccc(CSc3ncnc4nc[nH]c34)cc2)c(C)c1 | inconclusive: 3.29 µM [inhibitor, partial curve, poor fit] |
| O=c1oc(-c2ccc([N+](=O)[O-])cc2)nc2ccccc12 | inconclusive: 2.62 µM [inhibitor, partial curve, poor fit] |
| COc1ccc(-c2cc(C(=O)NN3CCOCC3)c3ccccc3n2)cc1OC | inconclusive: 18.5 µM [inhibitor, single point] |
| CC(C)Cn1c(N)c(C(=O)CSc2nnnn2C)c(=O)n(C)c1=O | inconclusive: 2.08 µM [inhibitor, full curve] |
| C#CCOCCOCCOCCNc1nc(N2CCN(C(=O)[C@H](C(C)C)n3cc(CCO)nn3)CC2)nc(N2CCN(C(=O)[C@H]([C@@H](C)CC)n3cc(CCCCN)nn3)CC2)n1 | inconclusive: 10.4 µM [inhibitor, partial curve] |
| CCOC(=O)c1sc(Nc2nc3cc4c(cc3s2)OCO4)cc1C | active: 8.28 µM |
| CCn1c(N)nc2ccccc21 | inactive |
| COc1ccccc1Nc1nc(NCCO)nc(N)c1[N+](=O)[O-] | inconclusive: 5.86 µM [inhibitor, partial curve] |
| CC1(C)CC(=O)C2=C(C1)OC(N)=C(C#N)[C@@H]2c1ccccc1[N+](=O)[O-] | inconclusive: 1.31 µM [inhibitor, partial curve] |
| CN(C)P(=S)(Nc1ccccc1)C(Cl)(Cl)Cl (centres undefined) | active: 11.7 µM |
| COc1ccc(S(=O)(=O)N2CCCCC2)cc1NC(=O)c1ccc2c(c1)OCO2 | inactive |
| Cc1cccc(CC(=O)NCC(=O)NCc2cc(=O)n(C)c(=O)n2C)c1 | inactive |
| CCOc1ccc(C(=O)OCC(=O)N2CCOCC2)cc1OCC | inactive |
| O=C(N/N=C\c1ccc(Cl)s1)C1COc2ccccc2O1 (centres undefined) | inactive |
| CCN(CC)Cc1cc(CCNC(=O)c2ccc(Cl)cc2)ccc1O | inconclusive: 18.5 µM [inhibitor, single point] |
| N#Cc1nc(Cc2ccccc2)oc1NCc1cccnc1 | inconclusive: 9.28 µM [inhibitor, partial curve, poor fit] |
| CCOc1ncccc1C(=O)NNC(=O)c1csc(N2CCOCC2)n1 | inconclusive: 11.7 µM [inhibitor, partial curve, poor fit] |
| O=C(CCS(=O)(=O)c1ccccc1F)Nc1ccc(N2CCN(Cc3ccccc3)CC2)cc1 | inconclusive: 14.7 µM [inhibitor, single point] |
| COc1cc(CNC(C)(C)CO)cc(Br)c1OCc1ccc(Cl)cc1Cl | active: 11.7 µM |
